# Reference: the supplement of paper PMC4466236
# Whole data set: some 33,000 sequences, median “E-score (dimensionless, -0.5 to 0.5)” near -0.058, cut for the highest 2% near 0.35. Some of the results follow.
# Tested on: MvaT
# Test: PBM 8-mer E-score (mean of HK and ME arrays) (E-score (dimensionless, -0.5 to 0.5)); higher = stronger relative binding preference; most listed sequences are background and not binding sites
# Method in brief: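 Reported values are rank-based E-scores, taken as the mean of two universal arrays and parsed with a custom script. Each 8-mer score falls between -0.5 and 0.5. The arrays, ME and HK, were double-stranded 60-mers with a constant 25-mer primer region and a variable 35-mer region covering all 8-mers. They were probed, by an earlier protocol, with full-length P. aeruginosa MvaT carrying an N-terminal glutathione S-transferase fusion.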
row,Sequence,PBM 8-mer E-score
1,AGAATATA,0.378
2,AACGGGCA,-0.142
3,AATGCATC,0.0818
4,GGCCGACC,-0.225
5,TATGCAAA,0.261
6,ACGATTCA,-0.0465
7,AGGGTAAT,0.102
8,CGCTCCCC,-0.404
9,TCCTCAAA,0.0105
10,ATATATGG,0.42
11,ACCATATC,0.099
12,AGGTTAAA,0.0501
13,CGAGGGCG,-0.305
14,ACACAGAC,-0.0322
15,AGTACATA,0.238
16,GCAGTTCC,-0.18
17,ATTCTCAA,0.128
18,CAGCTTGA,-0.207
19,AGTCTAAG,0.098
20,CTAGTTGA,0.122
21,CCCTGTAA,-0.128
22,CCTCGTCA,-0.079

row,Sequence,PBM 8-mer E-score
1,ACTCAGTG,-0.0225
2,AATTAGAG,0.155
3,AAAAAGCT,0.0209
4,CTCACTAC,-0.115
5,AGGTATAT,0.201
6,ACAAGCCT,-0.0491
7,TAGTGACA,0.0242
8,GGTAGCTA,-0.118
9,AGATAAGG,0.136
10,AGGGGATC,-0.201
11,ATTGTCAG,0.0673
12,AGCGACCC,-0.187
13,GTCTGCAA,-0.153
14,AGCCGCAG,-0.199
15,GAGAGACA,-0.166
16,CGTAATCC,-0.0891
17,ACTGTACC,-0.0921
18,ACGCTTAG,-0.188
19,AATCGTCT,0.0741
20,AGACTACA,-0.0489
21,CAGGTTCG,-0.252
22,AGTGTATG,0.185

row,Sequence,PBM 8-mer E-score
1,AGGCGTCA,-0.231
2,TTAAGTAA,0.328
3,CTAAGGAC,-0.191
4,ATTTATGC,0.199
5,GACAAAAC,0.146
6,CGGGGACC,-0.345
7,AAGCATTC,-0.126
8,ATTCCGAG,0.0144
9,AATACGTC,0.0932
10,CTTACGCA,-0.158
11,CGGAGGCC,-0.314
12,CACTGGCA,-0.237
13,TCATACAA,0.0994
14,CCAGCTCG,-0.233
15,ATATTCTG,0.292
16,CTATTGAA,0.184
17,ACTTGTCC,-0.0551
18,ATTAGCGA,0.131
19,ATTACATC,0.146
20,CTAAGGTA,0.0908
21,CAACAGCC,-0.26
22,CCGGTACA,-0.0915

row,Sequence,PBM 8-mer E-score
1,ATGTCATC,0.0569
2,CACGAAGA,0.0533
3,ACAGGTGC,-0.152
4,ACTGATGG,-0.198
5,AGTGCCAG,-0.101
6,ACGTAGTA,0.0425
7,ACGGGCGA,-0.0803
8,GACGAATA,0.133
9,CGTACAGA,-0.103
10,ATCTTCAA,0.0478
11,AATATGAG,0.139
12,AAGGAATG,0.0374
13,ACCTCAGC,-0.296
14,CTTGCCGA,-0.128
15,CCGCACCG,-0.226
16,ATTAGCTC,0.133
17,ATAACCTA,0.182
18,ACACGCTC,-0.0374
19,GGGGCGCA,-0.229
20,ACATTGAA,0.157
21,ATCTAGCC,-0.019
22,CAGACTCG,-0.268

row,Sequence,PBM 8-mer E-score
1,GGGCCTGA,-0.257
2,CACTCGCC,-0.125
3,AGGGCATG,-0.207
4,AGCCTACA,-0.0198
5,ACCGTGAA,-0.075
6,ACACAGGG,-0.0395
7,GGGCTTGA,-0.222
8,CCAATTGC,0.0733
9,GCCGAACA,-0.116
10,TTCAACAA,0.237
11,CCAACTAG,-0.0215
12,TGCTGTAA,0.119
13,CATGGCAA,0.015
14,AACCTGAA,0.0158
15,AAATTATT,0.401
16,AAGTAGAC,0.0778
17,CCCGAATA,0.0948
18,GATAGAGC,-0.133
19,CGTGGGAA,-0.124
20,GTATTAAC,0.39
21,AAAGTTCA,0.322
